Experimental data from PubChem BioAssay AID588591 (National Center for Advancing Translational Sciences (NCATS), 2011).
Hit rate of the full screen: of about 390,000 compounds, about 4,700 (1.2%) were called active. The inconclusive results got no clear call from the source; some entries with a clear call stand among them for comparison. Calls follow the shape of the dose curve; as a rule, active = well fitted inhibition curve with a large enough effect; inconclusive = small, poorly fitted or top-dose-only effect, or another doubt; inactive = no such curve, though single readings can be large or run the other way. A potency beside an inconclusive call is a rough fit, not a confirmed value.

target: DNA polymerase eta (Homo sapiens) (UniProt Q9Y253); test: qHTS for Inhibitors of Polymerase Eta; conditions: recombinant Pol eta, fluorescent DNA replication assay; series mostly up to 114 µM; activity change, negative = inhibition: at the top concentration
Chain of UniProt Q9Y253 (Q9Y253 whole entry, looked up): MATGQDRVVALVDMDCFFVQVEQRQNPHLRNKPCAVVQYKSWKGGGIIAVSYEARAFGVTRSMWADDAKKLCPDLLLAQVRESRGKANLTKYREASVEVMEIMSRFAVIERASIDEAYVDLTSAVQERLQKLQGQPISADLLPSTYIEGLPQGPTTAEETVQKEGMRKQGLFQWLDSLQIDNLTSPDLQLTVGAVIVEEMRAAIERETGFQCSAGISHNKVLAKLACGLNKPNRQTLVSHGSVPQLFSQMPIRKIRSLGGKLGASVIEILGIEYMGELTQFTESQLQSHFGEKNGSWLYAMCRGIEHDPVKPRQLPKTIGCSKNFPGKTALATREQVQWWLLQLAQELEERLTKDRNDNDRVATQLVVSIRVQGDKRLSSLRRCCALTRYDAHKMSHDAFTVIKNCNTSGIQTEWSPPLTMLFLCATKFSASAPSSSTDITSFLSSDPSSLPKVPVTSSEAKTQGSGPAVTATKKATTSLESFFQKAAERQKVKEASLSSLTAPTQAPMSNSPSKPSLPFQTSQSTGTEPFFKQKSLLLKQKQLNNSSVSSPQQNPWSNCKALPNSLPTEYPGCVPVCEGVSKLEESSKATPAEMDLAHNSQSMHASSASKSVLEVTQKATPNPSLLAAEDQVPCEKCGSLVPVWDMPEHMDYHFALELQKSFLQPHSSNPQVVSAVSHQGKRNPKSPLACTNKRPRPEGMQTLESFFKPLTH
How it was run: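 Pol eta at 10 nM preincubated with compounds 15 min at room temperature; reaction started with fluorescent substrate (50 nM final) and read kinetically at 0 and 10 min.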
% is scaled to controls: 0 for no effect and ±100 for the full control effect; potency is read from the fitted curve at half-maximal effect; tags tell the direction and shape of the fitted curve.

| SMILES | Potency | activity change, negative = inhibition |
| --- | --- | --- |
| CCc1ccc2c(c1)NC(c1ccc(C)cc1)=NC(c1cccs1)=N2 | inconclusive: 50.1 µM [inhibitor, partial curve, poor fit] | – |
| O=S(=O)(c1ccc2nc(-c3ccco3)c(-c3ccco3)nc2c1)N1CCOCC1 | active: 14.1 µM | – |
| COCCCn1c(Cc2csc(Nc3cccc(Cl)c3)n2)nnc1SCC(=O)OC | active: 20 µM | – |
| COc1ccc([C@H]2N[C@]3(CCCN(CC4CCCCC4)C3=O)[C@H]3C(=O)N(Cc4ccccc4)C(=O)[C@@H]23)cc1 | – | inactive: -12.8% |
| CSc1ccc(/C=N/NC(=O)c2ccc(-n3cnnn3)cc2)cc1 | – | inactive: 2.76% |
| Nc1ccc(-c2nc3c(Cl)c(N)ccc3[nH]2)cc1 | inconclusive: 44.7 µM [inhibitor, partial curve, poor fit] | – |
| COc1cc(/C=N/NC(=O)C(=O)/C=C2\NC(C)(C)Cc3ccccc32)ccc1O | inconclusive: 79.4 µM [inhibitor, partial curve, poor fit] | – |
| COc1ccc(OCC(=O)Nc2cc(-c3nc4ccccc4s3)ccc2C)cc1 | inconclusive: 79.4 µM [inhibitor, single point] | – |
| C=CC[C@]12CCc3ccccc3C1N(c1ccc(C(=O)OCC)cc1)C2=O (stereo partly drawn) | inconclusive: 79.4 µM [inhibitor, partial curve, poor fit] | – |
| CCOc1ccccc1-c1cc(C(=O)Nc2ccc(C(=O)O)cc2)c2ccccc2n1 | inconclusive: 79.4 µM [inhibitor, partial curve] | – |
| Cc1ccc(C(=O)COC(=O)COc2ccccc2[N+](=O)[O-])s1 | inconclusive: 25.1 µM [inhibitor, single point] | – |
| CCOC(=O)C(CC)n1cnc2sc3c(c2c1=O)CCC3 (stereo not drawn) | inconclusive: 22.4 µM [inhibitor, partial curve, poor fit] | – |
| CCOC(=O)N1CCC(NC(=O)c2cnn(-c3ccc(F)cc3F)c2C2CCN(C(=O)OC(C)(C)C)CC2)CC1 | – | inactive: -3.75% |
| Cc1ccccc1NC(=O)c1ccc2c(O)c(S(=O)(=O)c3ccccc3)c(=O)[nH]c2c1 | inconclusive: 89.1 µM [inhibitor, single point] | – |
| CC(C)c1ccc(NC(=O)C[n+]2ccn(C3=C([O-])c4ccccc4C3=O)c2)cc1 | active: 79.4 µM | – |
| CCCCN(C(=O)c1ccc([N+](=O)[O-])o1)c1c(N)n(CC(C)C)c(=O)[nH]c1=O | inconclusive: 22.4 µM [inhibitor, partial curve, poor fit] | – |
| O=C(NCC(c1ccc2c(c1)OCO2)N1CCOCC1)C(=O)Nc1ccccc1 (stereo not drawn) | – | inactive: -0.105% |
| C=CCN1CCN(C(c2ccccc2)c2nnnn2CCC(C)C)CC1 (stereo not drawn) | – | inactive: 2.18% |
